# Test results as given in the RNAGym collection of RNA variant scans (doi:10.1093/nar/gkz1192).
# The source gives no read counts; variants with many changes may rest on few reads.
# B1: CPEB3 Ribozyme (parent)
# chain: UAACAGGGGGCCACAGCAGAAGCGUUCACGUCGCAGCCCCUGUCAGAUUCUGGUGAAUCUGCGAAUUCUGCUGUAUAUCUC
# Variants of: B1
# Experiment: self-cleavage, relative activity (ratio to wild type); higher = more cleavage; in vitro, sequencing
# Method in brief: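 Relative activity compares each variant's cleaved/total read fraction with that of the unmutated ribozyme. To get these fractions, barcoded CPEB3 ribozyme libraries from rounds of error-prone PCR were transcribed with T7 RNA polymerase for 5 hours at 37°C and then given 15 min of DNase I treatment before EDTA was added. The RNAs were reverse transcribed with template switching and sequenced on Illumina, and DNA sequencing linked barcodes to variants. A minimum of 5 reads applied, and three batches were averaged.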
row,Variant,self-cleavage
1,UAACAGGGGGCCACAACAGAAGCGUUCACGUCGCAGCCCCUGUCAGAUUCUGGUGAAUCUGCGGAUUCUGCUGUAUACCCC [G16A A64G U78C U80C],0.3
2,UAACAGGGGGCCACAACAGAAGCGUUCACGUCGCAGCACCUGUCAGAUUCUGGUGAAUCUGCGAAUUCUGUUGUAUAUCCC [G16A C38A C71U U80C],0.07
3,UAACAGGGGGCCACAACAAAAGCGUUCACGACGCAGCCCCUGUCAGAUUCUGGUGAAUCAUCGAAUUCUGCUGUAUAUCUC [G16A G19A U31A U60A G61U],0.06
4,UAACAGGGGGCCACAACAGAAGCGUACACGUCGCAGCCCCUGUCGGAUUCUGGUGAAUCUGCGAAUUCUGUUGUAUAUCUC [G16A U26A A45G C71U],0.49
5,UAACAGGGGGCCACAACAGAAGCGUACACGUCGCAGCCCCUGUCUGAUUCUGGUGAACCUGCAAAUUCUGCUGUAUAUCUC [G16A U26A A45U U58C G63A],0.12
6,UAACAGGGGGCCACAACAGAAGCGUACACGUCGCAGCCCCUGUCAGAUUUUGGAGAAUCUGCGAAUGCUGCUGUAUAUCUC [G16A U26A C50U U54A U67G],0.07
7,UAACAGGGGGCCACAACAGAAGCGUCCACGUCGCAGCCCCUGUCAGAUUCUGGUGAAUCUGCGGAUUCUGCUGUAUAUCUC [G16A U26C A64G],0.22
8,UAACAGGGGGCCACAACAGAAGCGUUCACGACGCGGCCCCUGUCAGAUUCUGGUGAGUCUACGAAUUCUGCUGUAUAUCUC [G16A U31A A35G A57G G61A],0.18
9,UAACAGGGGGCCACAACAGAAGCGUUCACGCCGCAGCCCCUGUCGGAUUCUGGUGAAUCUGCGAAUUCUGCUGUAUAUCUC [G16A U31C A45G],0.17
10,UAACAGGGGGCCACAACAGAAGCGUUCACGUCGCAGCCCCCGUCCGAUCCUGGUGAAUCUGCGAAUUCUGCUGUAUAUCUC [G16A U41C A45C U49C],0.07
11,UAACAGGGGGCCACAACAGAAGCGUUCACGUCGCAGCCCCCGUCAGAUUCUGGUGAAUCUGCGAAUUCUGUUGUAUAUCUC [G16A U41C C71U],1.15
12,UAACAGGGGGCCACACCUGAAGCGUUCACGUCGCAGCCCCUGUCAGAUUCUGGUGAAUCUGCGGAUUCUGCCGUAUAUCUC [G16C A18U A64G U72C],0.24
13,UAACAGGGGGCCACACCAGUAGCGUCCACGUCGCAGCCCCUGUCGGAUUCUGGUGAAUCUGCGAAUUCUGCUGUAUACCCC [G16C A20U U26C A45G U78C U80C],0.17
14,UAACAGGGGGCCACACCAGAAGCGUUCGAGUCGCAGCCCCUGUCUGAUUCUGGUGAAUCUGCGAAUUCUGCUGUAUAUCUC [G16C A28G C29A A45U],0.22
15,UAACAGGGGGCCACACCAGAAGCGUUCUCGUCGCAGCCCCUGUCAGAUUCUGGAGAAUCUGCGAAUUCUGCUGUAUAUCUC [G16C A28U U54A],0.11
16,UAACAGGGGGCCACACCAGAAGCGUUCACGUCGCAGCCCCUGUCAGAUUCUGGUGAGUCUGCGAAUUCUGCUGAAUAUCUC [G16C A57G U74A],0.27
17,UAACAGGGGGCCACACCAGAAGCGUUCACGUCGCAGCCACCGUCAGAUUCUGGUGAAUCUGCGAAUUCUGCUGUAUAUCUC [G16C C39A U41C],0.42

row,Variant,self-cleavage
1,UAACAGGGGGCCACACCAGAAGCUUUCACGUCGCAGCCCCUGUCAGAUUCUCGUGAAUCAGCGAAUUCUGCUGUAUAUCUC [G16C G24U G52C U60A],0.3
2,UAACAGGGGGCCACACCAGAAGCGAUCACGUCGCAGCCCCUGUCAUAUCCUGGUGAAUCUGCGAAUUCUGCUGUAUAUCUC [G16C U25A G46U U49C],0.13
3,UAACAGGGGGCCACACCAGAAGCGCUCUCGUCGCAGCCCCUGUCAGGUUCUGGUGAAUCUGCGAAUUCUGCUGUAUAUCUC [G16C U25C A28U A47G],0.06
4,UAACAGGGGGCCACACCAGAAGCGCUCACGUCGCAGCCCCUGUCGGAUUCUGGUGAAUCAGCGAAUUCAGCUGUAUAUCUC [G16C U25C A45G U60A U69A],0.25
5,UAACAGGGGGCCACACCAGAAGCGCUCACGUCGCAGCCCCUGUCUGAUUCUGGUGAAUCUGCGAAUUCUGCUGUAUAUCUC [G16C U25C A45U],0.19
6,UAACAGGGGGCCACACCAGAAGCGCUCACGUCGCAGCCCCUGUCAGAUUCCGGUGAAUCUGCGAAUUCCGCUGUAUAUCUC [G16C U25C U51C U69C],0.12
7,UAACAGGGGGCCACACCAGAAGCGUUCACGUCGCAGCCCCCGUCAGAUUCUGGUGAAUCUGCGAAUUCUGCUGUAUAUCCC [G16C U41C U80C],0.51
8,UAACAGGGGGCCACACCAGAAGCGUUCACGUCGCAGCCCCUGCCAGAUUCUGGUGAAUCUGCGAAUACUGCUGUAUAUCUC [G16C U43C U67A],0.1
9,UAACAGGGGGCCACACCAGAAGCGUUCACGUCGCAGCCCCUGUCAGAGUCUGGAGAAUCUGCGAAUUCUGCAGUAUAUCUC [G16C U48G U54A U72A],0.04
10,UAACAGGGGGCCACACCAGAAGCGUUCACGUCGCAGCCCCUGUCAGAUUCAGGUGUAUCUGCGAAUUCUGCUGUGUAACUC [G16C U51A A56U A75G U78A],0.07
11,UAACAGGGGGCCACACCAGAAGCGUUCACGUCGCAGCCCCUGUCAGAUUCAGGUGUAACUGCGAAUUCUGCCGUAUGUCUC [G16C U51A A56U U58A U72C A77G],0.12
12,UAACAGGGGGCCACACCAGAAGCGUUCACGUCGCAGCCCCUGUCAGAUUCGGGUGAAUCUGCGAAUUCUACUGUAUAUCUG [G16C U51G G70A C81G],0.11
13,UAACAGGGGGCCACACCAGAAGCGUUCACGUCGCAGCCCCUGUCAGAUUCUGGUGAAUCGGCGAAUUCUGCUCCAUAUCUC [G16C U60G G73C U74C],0.14
14,UAACAGGGGGCCACACCAGAAGCGUUCACGUCGCAGCCCCUGUCAGAUUCUGGUGAAUCUGCGAAUCCUGCUGUGUACCUC [G16C U67C A75G U78C],0.06
15,UAACAGGGGGCCACAUCUGAAGCGUUCACGUCGCAGCCCCUGUCAGAUUCUGGUGAAUCUGCGAGCUCAGCUGUAUAUCUC [G16U A18U A65G U66C U69A],0.07
16,UAACAGGGGGCCACAUCAGGAGCGUUCCCGUCGCAGCCCCCGUCAGAUUCUGGUGAAUCUGCGAGUUCUGCUGUAUAUCUC [G16U A20G A28C U41C A65G],0.06
17,UAACAGGGGGCCACAUCAGGAGCGUCCACGUCGCAGCCCCUAUCAGAUUCCGGUGAGUCUGCGAAUUCUGCUGUAUAUCUC [G16U A20G U26C G42A U51C A57G],0.07
